# Test results reported in the supplement of paper PMC8728848.
# This is one part of the list.
# B1: Mg1lysM (Mycosphaerella graminicola) (protein)
# chain: QRNPITITPQFDCGATNSQQYVARSGDTLTKIAQEIYHDVVGVCDIARANNLADPNRIDAGTPYTIPINCQTYDRNSCL
# Tests used:
# Experiment in all cases: glycan array binding signal (z-score within array); higher = stronger binding
# Conditions in all cases: glycan notation: IUPAC condensed, linker removed
# [1] = target: Gal(b1-4)GalNAc(b1-3)[Fuc(a1-2)]Gal(b1-4)GlcNAc
# Procedure, shortened: (§1)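 The binding signal is a Z-score computed within each array. Data were drawn from 3228 arrays in the Consortium for Functional Glycomics database, restricted to those with a known protein sequence. Scores were averaged over arrays of the same protein sequence at different concentrations or buffers, and over linkers, and negative values can be taken as non-binding.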
# [2] = target: Gal(b1-4)Glc
# Procedure, shortened: as §1
# [3] = target: Gal(b1-4)Glc6S
# Procedure, shortened: as §1
# [4] = target: Gal(b1-4)GlcNAc
# Procedure, shortened: as §1
# [5] = target: Gal(b1-4)GlcNAc(a1-6)Gal(b1-4)GlcNAc
# Procedure, shortened: as §1
# [6] = target: Gal(b1-4)GlcNAc(b1-2)Man
# Procedure, shortened: as §1
# [7] = target: Gal(b1-4)GlcNAc(b1-2)Man(a1-3)Man(b1-4)GlcNAc(b1-4)GlcNAc
# Procedure, shortened: as §1
# [8] = target: Gal(b1-4)GlcNAc(b1-2)Man(a1-3)[Gal(b1-4)GlcNAc(b1-2)Man(a1-6)]Man(b1-4)GlcNAc(b1-4)GlcNAc
# Procedure, shortened: as §1
# [9] = target: Gal(b1-4)GlcNAc(b1-2)Man(a1-3)[Gal(b1-4)GlcNAc(b1-2)Man(a1-6)]Man(b1-4)GlcNAc(b1-4)[Fuc(a1-6)]GlcNAc
# Procedure, shortened: as §1
# [10] = target: Gal(b1-4)GlcNAc(b1-2)Man(a1-3)[Gal(b1-4)GlcNAc(b1-2)Man(a1-6)][Gal(b1-4)GlcNAc(b1-4)]Man(b1-4)GlcNAc(b1-4)[Fuc(a1-6)]GlcNAc
# Procedure, shortened: as §1
# [11] = target: Gal(b1-4)GlcNAc(b1-2)Man(a1-3)[Gal(b1-4)GlcNAc(b1-2)Man(a1-6)][GlcNAc(b1-4)]Man(b1-4)GlcNAc(b1-4)[Fuc(a1-6)]GlcNAc
# Procedure, shortened: as §1
# [12] = target: Gal(b1-4)GlcNAc(b1-2)Man(a1-3)[GlcNAc(b1-2)Man(a1-6)]Man(b1-4)GlcNAc(b1-4)GlcNAc
# Procedure, shortened: as §1
# [13] = target: Gal(b1-4)GlcNAc(b1-2)Man(a1-3)[GlcNAc(b1-4)][Gal(b1-4)GlcNAc(b1-2)Man(a1-6)]Man(b1-4)GlcNAc(b1-4)GlcNAc
# Procedure, shortened: as §1
# [14] = target: Gal(b1-4)GlcNAc(b1-2)Man(a1-3)[Man(a1-6)]Man(b1-4)GlcNAc(b1-4)GlcNAc
# Procedure, shortened: as §1
# [15] = target: Gal(b1-4)GlcNAc(b1-2)Man(a1-6)Man(b1-4)GlcNAc(b1-4)GlcNAc
# Procedure, shortened: as §1
# [16] = target: Gal(b1-4)GlcNAc(b1-2)Man(a1-6)[GlcNAc(b1-2)Man(a1-3)]Man(b1-4)GlcNAc(b1-4)GlcNAc
# Procedure, shortened: as §1
# [17] = target: Gal(b1-4)GlcNAc(b1-2)Man(a1-6)[Man(a1-3)]Man(b1-4)GlcNAc(b1-4)GlcNAc
# Procedure, shortened: as §1
# [18] = target: Gal(b1-4)GlcNAc(b1-2)[Gal(b1-4)GlcNAc(b1-4)]Man(a1-3)[Gal(b1-4)GlcNAc(b1-2)Man(a1-6)]Man(b1-4)GlcNAc(b1-4)GlcNAc
# Procedure, shortened: as §1
# [19] = target: Gal(b1-4)GlcNAc(b1-2)[Gal(b1-4)GlcNAc(b1-4)]Man(a1-3)[Gal(b1-4)GlcNAc(b1-2)[Gal(b1-4)GlcNAc(b1-6)]Man(a1-6)]Man(b1-4)GlcNAc(b1-4)GlcNAc
# Procedure, shortened: as §1
# [20] = target: Gal(b1-4)GlcNAc(b1-2)[Gal(b1-4)GlcNAc(b1-4)]Man(a1-3)[GlcNAc(b1-4)][Gal(b1-4)GlcNAc(b1-2)Man(a1-6)]Man(b1-4)GlcNAc(b1-4)GlcNAc
# Procedure, shortened: as §1
# [21] = target: Gal(b1-4)GlcNAc(b1-2)[Gal(b1-4)GlcNAc(b1-4)]Man(a1-3)[GlcNAc(b1-4)][Gal(b1-4)GlcNAc(b1-2)[Gal(b1-4)GlcNAc(b1-6)]Man(a1-6)]Man(b1-4)GlcNAc(b1-4)GlcNAc
# Procedure, shortened: as §1
# [22] = target: Gal(b1-4)GlcNAc(b1-2)[Gal(b1-4)GlcNAc(b1-6)]Man(a1-6)[Gal(b1-4)GlcNAc(b1-2)Man(a1-3)]Man(b1-4)GlcNAc(b1-4)GlcNAc
# Procedure, shortened: as §1
binder,measurement,setting,value
B1,glycan array binding signal (z-score),[1],-0.075
same,glycan array binding signal (z-score),[2],-0.076
same,glycan array binding signal (z-score),[3],-0.057
same,glycan array binding signal (z-score),[4],-0.068
same,glycan array binding signal (z-score),[5],-0.088
same,glycan array binding signal (z-score),[6],-0.053
same,glycan array binding signal (z-score),[7],-0.089
same,glycan array binding signal (z-score),[8],-0.07
same,glycan array binding signal (z-score),[9],-0.039
same,glycan array binding signal (z-score),[10],-0.088
same,glycan array binding signal (z-score),[11],-0.065
same,glycan array binding signal (z-score),[12],-0.078
same,glycan array binding signal (z-score),[13],-0.077
same,glycan array binding signal (z-score),[14],-0.08
same,glycan array binding signal (z-score),[15],-0.083
same,glycan array binding signal (z-score),[16],-0.065
same,glycan array binding signal (z-score),[17],-0.084
same,glycan array binding signal (z-score),[18],-0.058
same,glycan array binding signal (z-score),[19],-0.116
same,glycan array binding signal (z-score),[20],-0.054
same,glycan array binding signal (z-score),[21],-0.087
same,glycan array binding signal (z-score),[22],-0.076
